# Test results taken from the supplement of paper PMC8728848.
# The other results are listed elsewhere or left out.
# B1: PX14375F-bfa-539-21-539 (Bacteroides fragilis) (protein)
# chain: EDFLQKDPPSSPSQSVFWQKKSDFESALAGTYSVMYSGVFSQIMPCLDGLTDNAIVQHSEGTYGWAKTIAQGDLTPNQGGFVTDIYGNCYKGIARVHILMEQLDQYTGSDISADEKKFMLAQCKALRGYFYSWLYQCYKEVPVVTQSLDLNTMYQPKATRAEVLNRVMTDYDEAISELPDKLYSDSQTSGRFTVSAVKALKARILLFDAYDSNGKAISSKMEEVLTLLQSIKGYSLAARVRDNFISEKQLASPEIMFSVRFLRPNLTHSMDLYYGAWAVLDPTRNMVDAFECTDGKPWGESPLTVRPDESILYGNDDALKKAERAKMFMNRDRRLYESVNHSMMANFVDDGFKDEEVQVNESNNKGPTGFSALKYVQPTDVTPGYSTVSDADIVVLRYAHVLLMIAEAENEAHGATTTALNAINEVRTRSGQPAIEAGISQDDLRERIRNEWRIETCFEGLRYFQLKRWKLMDKRVNGVEDPAYPGYIKVYKPAFEFFPIPQSEIDKAGGVLKQDPAYE
# Key:
# Assay in all cases: glycan array binding signal (z-score within array); higher = stronger binding
# Settings in all cases: glycan notation: IUPAC condensed, linker removed
# [1] = target: Gal(b1-3)GlcNAc(b1-6)[Gal(b1-3)]GalNAc
# In short: (§1)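 Glycan array data came from 3228 arrays in the Consortium for Functional Glycomics database, and only arrays with an available protein sequence were kept. Glycan names were put into IUPAC-condensed notation, and columns mapping to the same glycan were averaged. The binding signal is a within-array Z-score, averaged across arrays of one protein sequence run at different concentrations or buffers and across linkers. A negative Z-score can be read as non-binding.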
# Gal(b1-3)GlcNAc6S = target: Gal(b1-3)GlcNAc6S
# In short: as §1
# [2] = target: Gal(b1-3)[Fuc(a1-4)]GlcNAc
# In short: as §1
# [3] = target: Gal(b1-3)[Fuc(a1-4)]GlcNAc(b1-2)Man
# In short: as §1
# [4] = target: Gal(b1-3)[Fuc(a1-4)]GlcNAc(b1-2)Man(a1-3)[Gal(b1-3)[Fuc(a1-4)]GlcNAc(b1-2)Man(a1-6)]Man(b1-4)GlcNAc(b1-4)[Fuc(a1-6)]GlcNAc
# In short: as §1
# [5] = target: Gal(b1-3)[Fuc(a1-4)]GlcNAc(b1-3)Gal(b1-3)[Fuc(a1-4)]GlcNAc
# In short: as §1
# [6] = target: Gal(b1-3)[Fuc(a1-4)]GlcNAc(b1-3)Gal(b1-4)[Fuc(a1-3)]GlcNAc
# In short: as §1
# [7] = target: Gal(b1-3)[Fuc(a1-4)]GlcNAc(b1-6)GalNAc
# In short: as §1
# [8] = target: Gal(b1-3)[GlcNAc(b1-6)]GalNAc
# In short: as §1
# [9] = target: Gal(b1-3)[Neu5Ac(a2-6)]GalNAc
# In short: as §1
# [10] = target: Gal(b1-3)[Neu5Ac(a2-6)]GlcNAc(b1-4)Gal(b1-4)Glc
# In short: as §1
# [11] = target: Gal(b1-3)[Neu5Ac(b2-6)]GalNAc
# In short: as §1
# Gal(b1-4)Gal = target: Gal(b1-4)Gal
# In short: as §1
# [12] = target: Gal(b1-4)GalNAc(a1-3)[Fuc(a1-2)]Gal(b1-4)GlcNAc
# In short: as §1
# [13] = target: Gal(b1-4)GalNAc(b1-3)[Fuc(a1-2)]Gal(b1-4)GlcNAc
# In short: as §1
# Gal(b1-4)Glc = target: Gal(b1-4)Glc
# In short: as §1
# Gal(b1-4)Glc6S = target: Gal(b1-4)Glc6S
# In short: as §1
# Gal(b1-4)GlcNAc = target: Gal(b1-4)GlcNAc
# In short: as §1
# [14] = target: Gal(b1-4)GlcNAc(a1-6)Gal(b1-4)GlcNAc
# In short: as §1
# Gal(b1-4)GlcNAc(b1-2)Man = target: Gal(b1-4)GlcNAc(b1-2)Man
# In short: as §1
# [15] = target: Gal(b1-4)GlcNAc(b1-2)Man(a1-3)Man(b1-4)GlcNAc(b1-4)GlcNAc
# In short: as §1
# [16] = target: Gal(b1-4)GlcNAc(b1-2)Man(a1-3)[Gal(b1-4)GlcNAc(b1-2)Man(a1-6)]Man(b1-4)GlcNAc(b1-4)GlcNAc
# In short: as §1
# [17] = target: Gal(b1-4)GlcNAc(b1-2)Man(a1-3)[Gal(b1-4)GlcNAc(b1-2)Man(a1-6)]Man(b1-4)GlcNAc(b1-4)[Fuc(a1-6)]GlcNAc
# In short: as §1
# [18] = target: Gal(b1-4)GlcNAc(b1-2)Man(a1-3)[Gal(b1-4)GlcNAc(b1-2)Man(a1-6)][Gal(b1-4)GlcNAc(b1-4)]Man(b1-4)GlcNAc(b1-4)[Fuc(a1-6)]GlcNAc
# In short: as §1
# [19] = target: Gal(b1-4)GlcNAc(b1-2)Man(a1-3)[Gal(b1-4)GlcNAc(b1-2)Man(a1-6)][GlcNAc(b1-4)]Man(b1-4)GlcNAc(b1-4)[Fuc(a1-6)]GlcNAc
# In short: as §1
# [20] = target: Gal(b1-4)GlcNAc(b1-2)Man(a1-3)[GlcNAc(b1-2)Man(a1-6)]Man(b1-4)GlcNAc(b1-4)GlcNAc
# In short: as §1
# [21] = target: Gal(b1-4)GlcNAc(b1-2)Man(a1-3)[GlcNAc(b1-4)][Gal(b1-4)GlcNAc(b1-2)Man(a1-6)]Man(b1-4)GlcNAc(b1-4)GlcNAc
# In short: as §1
# [22] = target: Gal(b1-4)GlcNAc(b1-2)Man(a1-3)[Man(a1-6)]Man(b1-4)GlcNAc(b1-4)GlcNAc
# In short: as §1
# [23] = target: Gal(b1-4)GlcNAc(b1-2)Man(a1-6)Man(b1-4)GlcNAc(b1-4)GlcNAc
# In short: as §1
# [24] = target: Gal(b1-4)GlcNAc(b1-2)Man(a1-6)[GlcNAc(b1-2)Man(a1-3)]Man(b1-4)GlcNAc(b1-4)GlcNAc
# In short: as §1
# [25] = target: Gal(b1-4)GlcNAc(b1-2)Man(a1-6)[Man(a1-3)]Man(b1-4)GlcNAc(b1-4)GlcNAc
# In short: as §1
# [26] = target: Gal(b1-4)GlcNAc(b1-2)[Gal(b1-4)GlcNAc(b1-4)]Man(a1-3)[Gal(b1-4)GlcNAc(b1-2)Man(a1-6)]Man(b1-4)GlcNAc(b1-4)GlcNAc
# In short: as §1
# [27] = target: Gal(b1-4)GlcNAc(b1-2)[Gal(b1-4)GlcNAc(b1-4)]Man(a1-3)[Gal(b1-4)GlcNAc(b1-2)[Gal(b1-4)GlcNAc(b1-6)]Man(a1-6)]Man(b1-4)GlcNAc(b1-4)GlcNAc
# In short: as §1
# [28] = target: Gal(b1-4)GlcNAc(b1-2)[Gal(b1-4)GlcNAc(b1-4)]Man(a1-3)[GlcNAc(b1-4)][Gal(b1-4)GlcNAc(b1-2)Man(a1-6)]Man(b1-4)GlcNAc(b1-4)GlcNAc
# In short: as §1
# [29] = target: Gal(b1-4)GlcNAc(b1-2)[Gal(b1-4)GlcNAc(b1-4)]Man(a1-3)[GlcNAc(b1-4)][Gal(b1-4)GlcNAc(b1-2)[Gal(b1-4)GlcNAc(b1-6)]Man(a1-6)]Man(b1-4)GlcNAc(b1-4)GlcNAc
# In short: as §1
# [30] = target: Gal(b1-4)GlcNAc(b1-2)[Gal(b1-4)GlcNAc(b1-6)]Man(a1-6)[Gal(b1-4)GlcNAc(b1-2)Man(a1-3)]Man(b1-4)GlcNAc(b1-4)GlcNAc
# In short: as §1
# [31] = target: Gal(b1-4)GlcNAc(b1-2)[Gal(b1-4)GlcNAc(b1-6)]Man(a1-6)[Gal(b1-4)GlcNAc(b1-2)Man(a1-3)]Man(b1-4)GlcNAc(b1-4)[Fuc(a1-6)]GlcNAc
# In short: as §1
# [32] = target: Gal(b1-4)GlcNAc(b1-2)[Gal(b1-4)GlcNAc(b1-6)]Man(a1-6)[GlcNAc(b1-4)][Gal(b1-4)GlcNAc(b1-2)Man(a1-3)]Man(b1-4)GlcNAc(b1-4)GlcNAc
# In short: as §1
# [33] = target: Gal(b1-4)GlcNAc(b1-2)[Gal(b1-4)GlcNAc(b1-6)]Man(a1-6)[GlcNAc(b1-4)][Gal(b1-4)GlcNAc(b1-2)[Gal(b1-4)GlcNAc(b1-4)]Man(a1-3)]Man(b1-4)GlcNAc(b1-4)[Fuc(a1-6)]GlcNAc
# In short: as §1
# [34] = target: Gal(b1-4)GlcNAc(b1-3)Gal(b1-3)GalNAc
# In short: as §1
# [35] = target: Gal(b1-4)GlcNAc(b1-3)Gal(b1-3)GlcNAc
# In short: as §1
# [36] = target: Gal(b1-4)GlcNAc(b1-3)Gal(b1-4)Glc
# In short: as §1
# [37] = target: Gal(b1-4)GlcNAc(b1-3)Gal(b1-4)GlcNAc
# In short: as §1
# [38] = target: Gal(b1-4)GlcNAc(b1-3)Gal(b1-4)GlcNAc(b1-2)Man(a1-3)[Gal(b1-4)GlcNAc(b1-3)Gal(b1-4)GlcNAc(b1-2)Man(a1-6)]Man(b1-4)GlcNAc(b1-4)GlcNAc
# In short: as §1
# [39] = target: Gal(b1-4)GlcNAc(b1-3)Gal(b1-4)GlcNAc(b1-2)Man(a1-3)[Gal(b1-4)GlcNAc(b1-3)Gal(b1-4)GlcNAc(b1-2)Man(a1-6)]Man(b1-4)GlcNAc(b1-4)[Fuc(a1-6)]GlcNAc
# In short: as §1
binder,measurement,setting,value
B1,glycan array binding signal (z-score),[1],0.776
same,glycan array binding signal (z-score),Gal(b1-3)GlcNAc6S,-0.205
same,glycan array binding signal (z-score),[2],-0.323
same,glycan array binding signal (z-score),[3],-0.404
same,glycan array binding signal (z-score),[4],2.29
same,glycan array binding signal (z-score),[5],-0.301
same,glycan array binding signal (z-score),[6],-0.084
same,glycan array binding signal (z-score),[7],0.122
same,glycan array binding signal (z-score),[8],0.297
same,glycan array binding signal (z-score),[9],-0.246
same,glycan array binding signal (z-score),[10],-0.711
same,glycan array binding signal (z-score),[11],-0.427
same,glycan array binding signal (z-score),Gal(b1-4)Gal,-0.203
same,glycan array binding signal (z-score),[12],-0.015
same,glycan array binding signal (z-score),[13],-0.125
same,glycan array binding signal (z-score),Gal(b1-4)Glc,-0.577
same,glycan array binding signal (z-score),Gal(b1-4)Glc6S,0.083
same,glycan array binding signal (z-score),Gal(b1-4)GlcNAc,-0.252
same,glycan array binding signal (z-score),[14],-0.526
same,glycan array binding signal (z-score),Gal(b1-4)GlcNAc(b1-2)Man,0.025
same,glycan array binding signal (z-score),[15],1.62
same,glycan array binding signal (z-score),[16],-0.389
same,glycan array binding signal (z-score),[17],-0.146
same,glycan array binding signal (z-score),[18],-0.27
same,glycan array binding signal (z-score),[19],-0.512
same,glycan array binding signal (z-score),[20],-0.38
same,glycan array binding signal (z-score),[21],-0.811
same,glycan array binding signal (z-score),[22],0.054
same,glycan array binding signal (z-score),[23],1.01
same,glycan array binding signal (z-score),[24],0.713
same,glycan array binding signal (z-score),[25],-0.85
same,glycan array binding signal (z-score),[26],0.363
same,glycan array binding signal (z-score),[27],-0.785
same,glycan array binding signal (z-score),[28],-0.165
same,glycan array binding signal (z-score),[29],-0.413
same,glycan array binding signal (z-score),[30],-0.067
same,glycan array binding signal (z-score),[31],2.08
same,glycan array binding signal (z-score),[32],-0.859
same,glycan array binding signal (z-score),[33],0.128
same,glycan array binding signal (z-score),[34],-0.78
same,glycan array binding signal (z-score),[35],-0.243
same,glycan array binding signal (z-score),[36],-0.293
same,glycan array binding signal (z-score),[37],-0.648
same,glycan array binding signal (z-score),[38],1.54
same,glycan array binding signal (z-score),[39],-0.107
